# Data taken from publication PMC4336329 (PLoS ONE, 2015).
# Out of some 310,000 compounds screened, about 2,200 (0.71%) showed an effect of 50% or more. Effects have a minus sign here. Some of the results follow.
# Target: human ether-à-go-go-related gene (hERG) potassium channel (human, UniProt Q12809)
# Experiment: primary screen, population patch clamp on CHO cells stably expressing hERG
# human ether-à-go-go-related gene (hERG) potassium channel, sequence (Q12809 whole entry, looked up): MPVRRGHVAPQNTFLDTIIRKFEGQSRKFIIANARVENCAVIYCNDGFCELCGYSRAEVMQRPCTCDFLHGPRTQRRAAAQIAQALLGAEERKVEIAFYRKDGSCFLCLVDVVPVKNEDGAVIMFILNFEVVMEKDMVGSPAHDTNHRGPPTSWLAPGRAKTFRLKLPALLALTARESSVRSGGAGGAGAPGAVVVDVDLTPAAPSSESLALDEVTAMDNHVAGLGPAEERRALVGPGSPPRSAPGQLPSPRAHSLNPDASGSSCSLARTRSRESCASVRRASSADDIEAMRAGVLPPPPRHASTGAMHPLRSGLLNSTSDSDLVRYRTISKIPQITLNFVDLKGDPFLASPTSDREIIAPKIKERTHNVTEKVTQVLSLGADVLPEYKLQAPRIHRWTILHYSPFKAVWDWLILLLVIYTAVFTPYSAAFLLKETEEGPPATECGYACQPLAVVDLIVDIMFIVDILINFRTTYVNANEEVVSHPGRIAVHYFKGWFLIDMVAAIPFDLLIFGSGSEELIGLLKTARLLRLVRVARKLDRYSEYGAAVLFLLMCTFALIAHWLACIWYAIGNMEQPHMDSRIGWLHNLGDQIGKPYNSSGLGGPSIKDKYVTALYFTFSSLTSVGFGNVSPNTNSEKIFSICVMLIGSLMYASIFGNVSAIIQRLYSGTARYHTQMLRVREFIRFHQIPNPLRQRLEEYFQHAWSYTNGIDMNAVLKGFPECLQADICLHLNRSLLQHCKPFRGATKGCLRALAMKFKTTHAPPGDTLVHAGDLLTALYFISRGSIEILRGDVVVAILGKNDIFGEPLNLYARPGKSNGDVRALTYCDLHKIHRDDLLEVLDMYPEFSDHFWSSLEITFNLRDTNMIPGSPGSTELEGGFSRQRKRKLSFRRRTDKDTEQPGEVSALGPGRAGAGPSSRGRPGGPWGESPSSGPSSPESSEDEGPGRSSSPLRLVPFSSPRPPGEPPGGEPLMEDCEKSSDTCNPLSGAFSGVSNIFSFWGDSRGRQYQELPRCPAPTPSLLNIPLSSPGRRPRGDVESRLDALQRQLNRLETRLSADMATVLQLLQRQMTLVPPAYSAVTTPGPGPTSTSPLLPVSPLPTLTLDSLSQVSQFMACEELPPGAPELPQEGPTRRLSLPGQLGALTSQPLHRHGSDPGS
row,SMILES,"hERG current change (%, negative = inhibition) at 1uM [%]"
1,O=C(Nc1ccc(Br)cc1)c1cc(-c2cccs2)on1,11.6
2,CN1CCN(CCNC(=O)Nc2ccc(Cl)cc2)CC1,9.31
3,O=C(CCNC(=O)c1ccc([N+](=O)[O-])cc1)Nc1ccc(F)c(F)c1F,3.31
4,O=C(CCCc1ccccc1)Nc1cccc2c1CCCC2,8.79
5,Cc1nc(CNS(=O)(=O)c2ccc(Oc3ccccc3)cc2)cs1,11.6
6,O=C(CSc1ccccc1)NCc1ccc(F)cc1,3.35
7,O=C(O)CCCCCNS(=O)(=O)c1cccc2c1C(=O)c1ccccc1C2=O,-3.39
8,CCOC(=O)c1ccc(N2CCOCC2)c(NC(=O)c2nccnc2C(=O)O)c1,10.5
9,CCOC(=O)C1(Cc2cccc(F)c2)CCN(C(=O)COC)CC1,7.49
10,Cc1nn(Cc2ccccc2)c(C)c1C(=O)NCCN1C(=O)S/C(=C\c2ccccc2)C1=O,7.35
11,N#Cc1ccccc1Sc1ccccc1C(=O)NCC(c1ccco1)N1CCCC1 (stereo not drawn),9.97
12,Cc1ccc(CCN2CC(C(=O)NCCCN3CCN(C)CC3)CC2=O)cc1 (stereo not drawn),12.7
13,CC(=O)c1ccc(NC(=O)C(C)NCc2ccc(Cl)cc2)cc1 (stereo not drawn),3.39
14,Cc1ccc(N(C(=O)c2csnn2)C(C(=O)NC(C)(C)C)c2ccccn2)cc1 (stereo not drawn),11.4
15,COc1ccc(N(CC(=O)NC(C)(C)C)C(=O)CCC(=O)Nc2nccs2)cc1,10.8
16,Cc1ccccc1NC(=O)COC(=O)c1ccc2nc(C)c(C)nc2c1,12.4
17,CCC1(c2ccccc2)NC(=O)N(CC(=O)Nc2ccccc2N2CCCC2)C1=O (stereo not drawn),1.49
18,CC1=C(C(=O)OCC(C)C)C(c2ccsc2)C2=C(CCCC2=O)N1 (stereo not drawn),12.7
19,O=C(CCC(=O)OCC(=O)c1ccc(Br)cc1)Nc1ccc(Br)c2cccnc12,12.9
20,O=C(COC(=O)c1ccccc1NC(=O)c1ccco1)NC1CCCCC1,-4.44
21,Cc1ccc(-n2nnnc2CN2CCCCC2)cc1,5.52
22,COc1ccc(-n2c(SCC(=O)/C(C#N)=C(\C)N)nc3ccccc3c2=O)cc1OC,5.47

row,SMILES,"hERG current change (%, negative = inhibition) at 1uM [%]"
1,CC1(c2nnc(Cc3ccccc3)o2)CC(c2cccnc2)=NO1 (stereo not drawn),5.9
2,CCOC(=O)c1ccc(Oc2cn[nH]c2-c2ccc(O)cc2O)cc1,11.9
3,CC(=O)c1ccc(NC(=O)c2noc3c2CCCCC3)cc1,8.63
4,CC1(C)CC(=O)C(N=Nc2c(F)cccc2F)=C(O)C1,15.3
5,COc1cc(CN2C(=O)NC(=O)C3(Cc4cc(C)ccc4N(C)C3)C2=O)cc(OC)c1 (stereo not drawn),-0.657
6,Clc1ccc(CSc2nnc(-c3cccnc3)n2Cc2ccco2)c(Cl)c1,-42.3
7,COc1cccc(/C=C/C(=O)OCC(=O)NC2CC2)c1,10.5
8,COc1ccc(-c2[nH]ncc2/C=N\NC(=O)c2ccc(C(C)(C)C)cc2)cc1OC,1.77
9,Cc1ccc(NC(=O)COC(=O)CCC(=O)c2cccs2)c(Br)c1,10.1
10,Cc1ccc(/C=C/C(=O)OCC(=O)Nc2ccccc2Sc2ccccc2)cc1,-1.05
11,O=c1cc(-c2ccc3c(c2)OCCO3)oc2ccc(Cl)cc12,3.95
12,Cc1ccc(C(=O)NNC(=O)Cc2nc3nc(C)cc(C)n3n2)cc1,25.2
13,O=C(NC(=S)NCCN1CCOCC1)c1ccc(F)cc1,11.2
14,Cc1cccc(NC(=O)c2ccccc2C(=O)O)c1,0.803
15,CN(CC(=O)Nc1ccc(F)c(F)c1F)C(=O)c1ccc(=O)[nH]c1,18.6
16,COC(CNC(=O)c1cnn2c(C)c(Cc3ccccc3)c(C)nc12)OC,5.93
17,CC(C)N(C)S(=O)(=O)c1ccc(NC(=O)CSC(=S)N2CCCC2)cc1,6.97
18,COc1ccc(C(=O)O)cc1S(=O)(=O)NCc1cccnc1,15.1
19,C/C=C(\C)CN1CCC(Oc2cc(C(=O)NC3CC3)ccc2OC)CC1,-59.9
20,CC(=O)Nc1ccc(Nc2ncnc3c2cnn3-c2ccc(C)cc2C)cc1,-14.8
21,CCCCn1c(CN2CCOCC2)nc2c1c(=O)n(C)c(=O)n2C,11.9
22,O=C(N1CCCC1)N1CCN(S(=O)(=O)c2ccccc2)CC1,14.8

row,SMILES,"hERG current change (%, negative = inhibition) at 1uM [%]"
1,O=C(CCc1nc2ccccc2[nH]c1=O)OCC(=O)c1ccc(Cl)cc1,3.45
2,COc1ccc(-c2csc(NC(=O)Cc3ccccc3F)n2)cc1OC,12.2
3,C/C(=N\NC(=O)COc1ccccc1[N+](=O)[O-])c1cccc(NC(=O)c2ccncc2)c1,12.5
4,O=C(COC(=O)c1cc(=O)[nH]c2ccccc12)NC1CCCCCCC1,9.18
5,COC(=O)C(C(=O)OC)C(c1ccccc1)C(C(=O)c1ccccc1)[N+](=O)[O-] (stereo not drawn),13.3
6,COc1ccc(Cn2ccnc2)cc1Br.Cl,14.9
7,COc1ccccc1OCCCn1cc(C(=O)C2CC2)c2ccccc21,10.1
8,Cc1ccc2c(c1C)NC(=O)C2(O)CC(=O)c1ccc2c(c1)OCO2 (stereo not drawn),4.51
9,O=C(c1cc(N2C(=O)C3C4CCC(C4)C3C2=O)ccc1Cl)N1CCN(c2ccccc2F)CC1 (stereo not drawn),1.55
10,COc1cc(C(=O)NCC(=O)N/N=C/c2ccc(-c3ccc([N+](=O)[O-])cc3)o2)cc(OC)c1OC,7.05
11,Cc1ccc(S(=O)(=O)c2ccc(Cl)cc2)cc1S(=O)(=O)N1CCN(C)CC1,-2.11
12,Cc1nc2cc(Cl)c(Cl)cc2nc1C,13.5
13,COc1cc(/C=N/NS(=O)(=O)c2ccc(C)c([N+](=O)[O-])c2)cc([N+](=O)[O-])c1O,17.2
14,COc1ccc(OC)c(NC(=O)C2CCCN2C(=O)NC2CCCCC2)c1 (stereo not drawn),10.4
15,O=C(NCCOc1ccccc1-c1ccccc1)c1ccco1,17.7
16,O=C(O)/C=C/C(=O)Nc1nccs1,14
17,Cc1cccc(OCCNC(=O)c2ccc(Cl)c(S(=O)(=O)NCc3cccnc3)c2)c1,-14.6
18,O=[N+]([O-])c1cc(S(=O)(=O)NCCc2ccccn2)ccc1Cl,8.28
19,Cc1ccc(NC(=O)CN2CCC(NC(=O)c3cccc(F)c3)CC2)cc1C,-13.4
20,CC(OC(=O)c1cc(S(=O)(=O)N2CCOCC2)ccc1F)C(=O)NC1CCCCC1C (stereo not drawn),9.77
21,Cc1cccn2c(=O)c3cc(C(=O)NCc4ccco4)c(=N)n(CCOCCO)c3nc12,-63.3
22,COc1cc2nc(CN3CCOCC3)n(CC(=O)NCC(F)(F)F)c(=O)c2cc1OC,11.5

row,SMILES,"hERG current change (%, negative = inhibition) at 1uM [%]"
1,CC(C)C(=O)N1CCN(c2ccccc2NC(=O)c2ccco2)CC1,-2.98
2,COc1ccc(-c2[nH]ncc2CNC(C)c2ccccc2Cl)cc1F (stereo not drawn),5.44
3,CC1CCN(CC(=O)Nc2ccccc2C#N)CC1,13.1
4,COc1ccc(S(=O)(=O)N2CCCC(C(=O)NCc3ccncc3)C2)cc1 (stereo not drawn),-1.34
5,CC(=O)c1ccc(N2CCN(C(=O)C3(S(=O)(=O)c4ccc(Cl)cc4)CC3)CC2)cc1,-17
6,COC(=O)c1sccc1OC(C)C(C)=O (stereo not drawn),12.6
7,CN(Cc1ccccc1)S(=O)(=O)c1ccc(OCC(=O)NCc2ccncc2)cc1,-34.8
8,CC(=O)c1cccc(S(=O)(=O)N2CCC(C(=O)N(C)Cc3ccc(Cl)s3)CC2)c1,6.24
9,CCOc1cc(C(=O)N/N=C(\C)Cc2ccc(OC)cc2)cc(OCC)c1OCC,-1.7
10,O=C(NCc1ccccc1)[C@H]1C[C@@H]1[C@H](NP(=O)(c1ccccc1)c1ccccc1)c1ccccc1,11.5
11,N#Cc1ccc(CSc2ccc(S(=O)(=O)N3CCCC3)cn2)cc1,-17.2
12,CC(C)N(CCNC(=O)c1nn(Cc2ccccc2)c(=O)c2ccccc12)C(C)C,-25.1
13,CN1CCc2nc3sc(C(=O)NC4CC4)c(N)c3cc2C1,5.35
14,O=C1/C(=C/c2ccccc2)CCC1C1CCCC1 (stereo not drawn),3.37
15,Cc1nc(SC(C(=O)c2ccccc2)c2ccccc2)nc2ccccc12 (stereo not drawn),5.07
16,CC(=O)Nc1nonc1-c1ccccc1,-7.82
17,O=c1[nH]c(=S)n(CCC2=CCCCC2)c(O)c1C=NC1CCN(Cc2ccccc2)CC1,2.93
18,OCC1(CO)COC(c2ccccc2)=N1,1.59
19,O=C(Cc1c(O)c2ccccc2[nH]c1=O)NCc1ccccc1F,6.38
20,CCOc1cccc(CN2CCCC(CNC(=O)c3cccc(OC)c3OC)C2)c1 (stereo not drawn),5.09
21,CCCCNC(=O)C1=C(N)C(C(=O)Nc2ccc(C)c(S(=O)(=O)N3CCCCC3)c2)SC1=Nc1ccc(C)cc1C (stereo not drawn),-5.69
